Data as given in PubChem BioAssay AID624418 (National Center for Advancing Translational Sciences (NCATS), 2012).
Among all 410,000 compounds or so, about 530 (0.13%) were called active. Inconclusive means that the source gave no clear call. Such entries were picked first, then a sample of the others. Calls follow the shape of the dose curve; as a rule, active = well fitted inhibition curve with a large enough effect; inconclusive = small, poorly fitted or top-dose-only effect, or another doubt; inactive = no such curve, though single readings can be large or run the other way. Potencies of inconclusive entries are doubtful fits and often do not repeat.
% is scaled to controls: 0 for no effect and ±100 for the full control effect; potency is read from the fitted curve at half-maximal effect.

Assay: qHTS of GLP-1 Receptor Inverse Agonists: Cytotox Screen
Conditions: HEK293 cAMP-luciferase reporter cells, luminescence, 24 h; activity change, negative = inhibition: at 38.3 µM (top of the series) unless noted
Procedure, shortened: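 To flag toxic compounds, the library was rerun on cells for 24 hr at 37 deg C and 5% CO2. Viability-linked luminescence was captured 12 min after adding luciferase detection reagent.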
In the case of `O=S(=O)(c1ccc2c(c1)nc(COc1ccc(Cl)cc1)n2CC1CCCO1)N1CCOCC1` (stereo unspecified), the Potency is reported as inconclusive: 12.6 µM [inhibitor, single point].
With `O=c1c2ccccc2n(Cc2cccc(Cl)c2)c(=O)n1Cc1ccccc1` the “activity change, negative = inhibition” value was inactive: 0%.
In the case of `COc1cccc(-c2nn(-c3ccc(C)cc3)cc2C(=O)N2CCc3cc(OC)c(OC)cc3C2)c1`, the Potency is reported as inconclusive: 28.2 µM [inhibitor, single point].
In the case of `Cc1ccc(S(=O)(=O)NN=C2C3CC4CC(C3)CC2C4)cc1[N+](=O)[O-]`, the “activity change, negative = inhibition” value is reported as inactive: 24.1%.
For `CCOc1ccc(-c2nc(C#N)c(N3CCCCCC3)o2)cc1`, the “activity change, negative = inhibition” value was inactive: 14.4%.
For `CCC(=O)Nc1sc2c(c1C(=O)Nc1ccc(Br)cc1)CCCCC2`, the “activity change, negative = inhibition” value was inactive: 1.29%.
In the case of `NC(=O)CC(NC(=O)Cc1ccc(Cl)cc1)c1ccc(N2CCC(Cc3ccccc3)CC2)c([N+](=O)[O-])c1` (stereo unspecified), the Potency is reported as inconclusive: 12.6 µM [inhibitor, single point].
For `CC1=CC(=O)C=CC1=Nc1ccc(N(C)C)cc1`, the Potency was inconclusive: 17.8 µM [inhibitor, single point].
With `O=c1oc2ccccc2cc1-c1nc(-c2cccs2)no1` the “activity change, negative = inhibition” value was inactive: -5.09%.
In the case of `Clc1ccc(CN2CCc3c([nH]c4ccccc34)C2)cc1Cl`, the Potency is reported as inconclusive: 28.2 µM [inhibitor, single point].
In the case of `Cc1c(O)cccc1C(=O)N[C@@H](CSc1ccccc1)[C@H](O)CN1C[C@H]2CCCC[C@H]2C[C@H]1C(=O)NC(C)(C)C`, the Potency is reported as inconclusive: 10 µM [inhibitor, partial curve, poor fit].
In the case of `O=C(O)c1ccc(-n2ncc(Cl)c(Cl)c2=O)cc1`, the “activity change, negative = inhibition” value is reported as inactive: 4.6%.
In the case of `C=CCC1(CC=C)CCCN1C(=O)C1CCC(=O)N(CCc2ccccc2)C1` (stereo unspecified), the Potency is reported as inconclusive: 20 µM [inhibitor, single point].
For `COc1ccc(C(=O)c2cnc[nH]2)cc1`, the Potency was inconclusive: 28.2 µM [inhibitor, single point].
With `Cc1cccc(-c2nc(CN3CCCC(C(=O)NC4CCCCC4)C3)c(C)o2)c1` (stereo unspecified) the Potency was inconclusive: 10 µM [inhibitor, single point].
In the case of `Cc1ccc(S(=O)(=O)N2CCC(C(=O)NC3CCCC3)CC2)cc1Cl`, the “activity change, negative = inhibition” value is reported as inactive: 4.76%.
For `COc1cccc(CN(C)C(=O)c2cc(-c3ccc(OC)c(OC)c3)nc3ccccc23)c1`, the Potency was inconclusive: 28.2 µM [inhibitor, single point].
For `CCc1cc(OCCCCNCc2ccccc2)ccc1Cl`, the Potency was inconclusive: 22.4 µM [inhibitor, single point].
With `OC(COc1cccc2ccccc12)CN1CCN(c2ccccc2Cl)CC1` (stereo unspecified) the Potency was inconclusive: 14.1 µM [inhibitor, partial curve, poor fit].
In the case of `CSc1ccccc1NC(=O)CN(C)C(=O)COc1ncnc2ccccc12`, the “activity change, negative = inhibition” value is reported as inactive: -5.46%.
With `COc1ccc(/C=C(/NC(=O)c2ccccc2)c2nc3ccc(Cl)cc3[nH]2)cc1OC` the Potency was inconclusive: 11.2 µM [inhibitor, single point].
With `Cc1nc2ccc(NC3=NCCCCC3)cc2s1` the “activity change, negative = inhibition” value was inactive: -3.89%.
In the case of `CC(C)CNC(=S)NC(=O)c1ccc(Cl)cc1`, the Potency is reported as inconclusive: 11.2 µM [inhibitor, single point].
With `COC(=O)Cn1c(=NC(=O)c2cc(-c3cccs3)nc3ccccc23)sc2cc(S(N)(=O)=O)ccc21` the “activity change, negative = inhibition” value was inactive: 29.8%.
In the case of `CSc1ccccc1C(=O)C1CCCN(Cc2c(C)n(C)n(-c3ccccc3)c2=O)C1` (stereo unspecified), the “activity change, negative = inhibition” value is reported as inactive: -10.9%.
For `O=C(O)/C(CC(=O)c1ccc(Cl)cc1)=N/Nc1ccc([N+](=O)[O-])cc1[N+](=O)[O-]`, the Potency was inconclusive: 7.94 µM [inhibitor, partial curve, poor fit].
For `COc1cc(NS(=O)(=O)c2ccc(-c3cc(C)no3)cc2)cc(OC)c1`, the Potency was inconclusive: 7.08 µM [inhibitor, partial curve, poor fit].
In the case of `COc1ccc(CCNC(=O)c2coc(=O)c(Br)c2)cc1`, the Potency is reported as inconclusive: 28.2 µM [inhibitor, single point].
With `Cc1[nH]c2ccc(Br)cc2c(=O)c1CN1CCOCC1` the “activity change, negative = inhibition” value was inactive: 75.9%.
In the case of `OC1(c2ccc(Cl)c(Cl)c2)C[n+]2ccccc2N1Cc1ccccc1` (stereo unspecified), the Potency is reported as inconclusive: 10 µM [inhibitor, single point].
With `OC[C@@H]1CN(CCN2CCOCC2)C[C@H](n2cnc3c(NC4CC4)ncnc32)O1` the Potency was inconclusive: 15.8 µM [inhibitor, single point].
For `COc1ccc(OC)c(/C=C(\C#N)c2nc(-c3ccc(F)cc3)cs2)c1`, the “activity change, negative = inhibition” value was inactive: 14.8%.
For `Cc1ccc(-n2nc3c(N4CCC(C(=O)NCc5cccc(F)c5)CC4)nnc(C)c3c2C)cc1`, the Potency was inconclusive: 28.2 µM [inhibitor, single point].
With `COc1ccc(Cl)cc1NC(=O)CN1Cc2ccccc2C1=O` the “activity change, negative = inhibition” value was inactive: 3.18%.
For `N/C(=N\OC(=O)/C=C/c1ccccc1)c1ccc(Br)cc1`, the Potency was inconclusive: 28.2 µM [inhibitor, single point].
With `CCC(=O)N(CC)C1=C(O)c2ccccc2C(=O)C1=O` the “activity change, negative = inhibition” value was inactive: 47.7%.
With `Cn1cccc1CNCc1ccccc1Cl` the “activity change, negative = inhibition” value was inactive: 9.52%.
With `Cc1ccccc1N(CC(=O)NCc1ccncc1)S(C)(=O)=O` the Potency was inconclusive: 28.2 µM [inhibitor, single point].
With `Cc1ccc(C)c(C(=O)CSc2nc3cc(C(=O)NC4CCCC4)ccc3c(=O)n2CC2CCCO2)c1` (stereo unspecified) the “activity change, negative = inhibition” value was inactive: 3.2%.
For `CC1CCN(S(=O)(=O)c2cn(CC(=O)Nc3ccc(F)cc3)c(=O)c3ccccc23)CC1`, the “activity change, negative = inhibition” value was inactive: -4.34%.
In the case of `CCCCOC(=O)Nc1ccc(N2CCOCC2)cc1`, the “activity change, negative = inhibition” value is reported as inactive: -6.95%.
With `COC(=O)[C@H](Cc1ccccc1)N(C)S(=O)(=O)c1cccc(S(=O)(=O)N(C)[C@@H](Cc2ccccc2)C(=O)OC)c1` the Potency was inconclusive: 31.6 µM [inhibitor, single point].
With `Cc1cccc(NC2=C(NC(=O)c3ccccc3)C(=O)c3ccccc3C2=O)c1` the Potency was inconclusive: 12.6 µM [inhibitor, single point].
In the case of `COc1ccc(CCNC(=O)CN2CCOc3ccccc32)cc1OC`, the “activity change, negative = inhibition” value is reported as inactive: 0%.
With `Cc1cccc(N2CCN(C(=O)c3ccc(CNc4c(N5CCC(C)CC5)c(=O)c4=O)cc3)CC2C)c1` (stereo unspecified) the Potency was inconclusive: 20 µM [inhibitor, partial curve, poor fit].
With `O=S(=O)(O)c1cc(Cl)cc(N=Nc2ccc(O)cc2O)c1O` the Potency was inconclusive: 7.08 µM [inhibitor, partial curve, poor fit].
